This is an account of results in the RNAGym collection of RNA variant scans (doi:10.7554/elife.90254).

Read counts are not given, so values of variants with three or more changes are uncertain.

The chains are these.
B1: OR4K15 (parent)
chain: GUUAACGGUCAUAGGCCAUGGAAACUAGGAGCACCAUUUCGCUGCCAGUGAAGAAAUGAACAAAGAAAAUCUGGGCCAGGCAGGCAUCAAAAGAAAUAGUCUUGCGCUCAACCAGAAAGUCUGUAAUCAUUUUAAGGGUA

The variants in this series derive from B1. The series can be described thus: self-cleavage, relative activity (ratio to wild type); higher = more cleavage; in vitro, sequencing; the parent is a self-cleaving ribozyme.
Consider U9C A60G A114U, for which the self-cleavage is 0.
As for U9C A52G A59G A95G U103A, the figure is 1.51; as for C10U A63G A90G A91G, 0.71.
As for U9A U57C U87C U131C, the figure is 0.24.
As for A11C A22U A47U A52G U102A, the figure is 0.37; as for C10U A52G A94G, 0.5; as for U9C U12A A36G U49G C105U, 0.21.
Consider U9A U103G A111G, for which the self-cleavage amounted to 0.04.
Regarding U9C U19C U43G A94U, the self-cleavage came out at 1.9.
In the case of U9C U39C A111G, the self-cleavage was 0.04.
As for U9C C16U A63G, the self-cleavage came to 1.59.
The value for C10U U38C U72C was 0.09; that for U9C U39A U49C A116G U122C was 0.69; that for U9C U108A U132C was 0.01.
Turning to C10A A94G A116G, the self-cleavage came out at 0.24.
The value for U9C A23G U38A A111G was 0.03; that for U9C C32A A118G was 0.15.
Consider U9C A22G A23G A126U, for which the self-cleavage was 0.96.
Take U9C A18G A23G A36G G44A A114G: the self-cleavage amounted to 0.5.
Take U9A U43C A54G U72A U87C: the self-cleavage came to 0.31.
Take U9C A18G A67U: the self-cleavage was 1.39.
In the case of U9G U37C U49G A55G, the self-cleavage is 0.79.
With U9C A33G A67G, the self-cleavage came out at 0.99.
Consider U9C U39A U122C A125C, for which the self-cleavage amounted to 0.87.
For the variant U9A A117G U133C, the self-cleavage is 1.64.
Take U9C U102C A111U: the self-cleavage is 0.19.
For the variant U9C U37C A60G A95G, the self-cleavage was 1.58.
The value for U9C U38C U139C was 2.29; that for C10U U43A U122C U131C A135U was 0.37.
U9C A94G A110G: the self-cleavage is 0.14.
Regarding U9C A11G A68G A126G, the self-cleavage was determined as 0.56.
Take U9C A23G A69G A116U A134G: the self-cleavage was determined as 0.08.
Turning to U9C G58A A91G, the self-cleavage is 1.1.
As to U9A A78U A89G, the self-cleavage was 0.4.
On to U9C A47G A110U A111C A129U A135G, for which the self-cleavage is 0.02.
Take U9C A22G A54G A64G A66G U87C: the self-cleavage came to 0.99.
For U9C A33U A51U U100C, the self-cleavage worked out at 2.08.
As for U9C G84A A116G, the self-cleavage was found to be 1.18.
Turning to U9C A68G A78U A95G U132C, the self-cleavage worked out at 0.74.
On to U9A U43C U130C, for which the self-cleavage turned out to be 0.74.
Regarding U9C A24U A110G, the self-cleavage amounted to 0.07.
As for U9C A23G A60G A92G, the figure is 0.55; as for U9C U37C A66G A91G, 1.65.
Regarding U9C A116U U124C, the self-cleavage was determined as 0.17.
On to U9A A62G G74U, for which the self-cleavage was determined as 0.06.
Turning to U9C A59U A60G A91U, the self-cleavage stood at 0.93.
With U9C A82G U100C U108C U131C, the self-cleavage worked out at 0.01.
Consider U9C A62G A98G, for which the self-cleavage was found to be 0.58.
As for U9C A66G A135U, the figure is 1.38.
As for C10U A30U A52G U57G U102A U133C, the self-cleavage amounted to 0.8.
On to U9C A33G A52G, for which the self-cleavage is 1.09.
In the case of U9C A18G A24G A91G, the self-cleavage was 0.75.
Take U9C A55U U87C: the self-cleavage was found to be 2.71.
For the variant A11C A18G A23G U49C A67G A82G, the self-cleavage is 0.36.
As for U9G U72C A134G, the self-cleavage stood at 0.2.
The value for U9C A47C A56G A60G A64U G104A U120C was 0.02.
For U9C A30U A51U U87C, the self-cleavage came to 0.65.
For U9C C16G A24U U38C A90U A114G, the self-cleavage is 0.87.
With C10U U70C A117G, the self-cleavage amounted to 0.83.
As for U9C A95G A96G A110G, the figure is 0.26.
Regarding U9C A24G A36G A68G A86G U131C, the self-cleavage came out at 0.53.
The value for U9C C32U U37C U87C A126U U127C was 0.52.
Consider U9C U39C U102C, for which the self-cleavage was 1.58.
As for U9C A59U A63C, the self-cleavage came out at 2.14.
With U9C A23U A94G U100C, the self-cleavage came out at 2.63.
For U9A C16U U43C U72C U87C, the self-cleavage turned out to be 0.13.
For U9C A52G A55U U131C, the self-cleavage was 1.59.
On to U9A A86U U100C U120C, for which the self-cleavage was found to be 1.85.
Regarding C10U A30G C32U A47G U49C, the self-cleavage turned out to be 1.32.
Regarding U9C A47G A117G, the self-cleavage was determined as 1.99.
As to U9C A23U A64G, the self-cleavage came to 0.64.
As to U9C U37C A116U, the self-cleavage turned out to be 0.43.
As for U9C A27U A33U U120C A129U U131C, the figure is 0.83; as for U9C A36U A126G, 0.76.
As for C10U A36U A52G A56G A94G U127A, the figure is 1.23; as for U9C A27U A96G U103A A117G, 1.19.
With U9A A68G A91G U103C, the self-cleavage is 0.23.
Turning to U9C A51G A134G, the self-cleavage amounted to 0.45.
The value for U9C A22G A52G A86G was 0.96; that for U9C A54C U72C A96G A114G was 2.53; that for U9C A23G A33G A52G A126G was 0.67.
U9C U57A A67U: the self-cleavage stood at 0.93.
With U9C U37A G48A A51G U131C, the self-cleavage came out at 0.82.
For U9A A60G A64U U108C, the self-cleavage amounted to 0.04.
With U9A A59G A95U, the self-cleavage turned out to be 0.79.
The value for U9C A56G A92C was 1.53; that for C10A A56G A96G was 0.65; that for U9C A36U A55G U102C A126G was 1.98.
U9C U19A A47G A68G: the self-cleavage worked out at 0.77.
Take U9C U19G A47G A98G: the self-cleavage turned out to be 0.34.
Take U9C A114G U139C: the self-cleavage was determined as 0.41.
Consider U9C U102C U103C, for which the self-cleavage worked out at 0.08.
The value for U9C U38A A47C A52G A91G was 0.98; that for U9C A90C U108C was 0.02; that for U9C A51C A78G A114C U120C was 0.01.
With U9C A82G A91G, the self-cleavage was 0.15.
The value for U9A U57C G79U was 0.17; that for U9C A13G A47C A86G A92U A94U was 1.29; that for C10U A63G U124A was 0.51.
Consider U9C A55G U72A A126U, for which the self-cleavage came to 0.36.
The value for U9C A78G A86G A129G U131C was 0.06.
The value for U9C A22G A55G A91G was 1.01; that for U9C A23G A126G was 0.85.
As to A11C A18U A60G U97A U108C, the self-cleavage is 0.
Turning to U9A U43C A63U, the self-cleavage was 1.48.
In the case of U9A U103C A117G, the self-cleavage turned out to be 1.17.
On to U9C G20U A92G, for which the self-cleavage was 1.53.
As for U9C A33G A96G, the figure is 0.98; as for U9C A78G U132C, 0.21.
As for U9C U43A A60G, the self-cleavage turned out to be 0.85.
Regarding U9G A18G A92G, the self-cleavage amounted to 1.12.
Regarding U9C A22G A59G A66G U133A, the self-cleavage amounted to 1.9.
On to U9C A63G U100A U122A U124C, for which the self-cleavage was 0.78.
Turning to U9A U38C A89G A92C A96U, the self-cleavage amounted to 1.28.
As for U9C A55G A129G, the figure is 1.88; as for U9C A63G A67G A91G A126U, 0.42; as for U9C G15U A24U U87C C112U U127C, 0.01.
For the variant U9C U37C U72G U122C U133A A134U, the self-cleavage amounted to 0.07.
The value for U9A U37C A69G U103C was 0.73; that for U9A A90G A92G A96G was 0.47; that for U9C U38C A60G U124C U132C A140G was 0.16.
Turning to U9C C40U U132A, the self-cleavage was determined as 0.51.
Regarding U9A A56G U70C A117G, the self-cleavage was determined as 1.23.
On to U9C A36C A51G, for which the self-cleavage was 1.94.
Take U9C A22U A96G: the self-cleavage turned out to be 0.79.
As for U9C A52U A66G A111U A129G, the figure is 0.08; as for U9C G28U A114G, 0.19.
U9C A62G A66G U131G: the self-cleavage amounted to 1.91.
For the variant U9C U19G A33U A94G A116G, the self-cleavage was 1.07.
Regarding U9C A33G U49C A68G U122A, the self-cleavage came to 0.57.
With U9A U108C A116U, the self-cleavage is 0.
With U9C U12C A56G A69G, the self-cleavage is 1.2.
Turning to U9G A36U U124C, the self-cleavage came out at 0.88.
With C10U A64G U70C, the self-cleavage is 0.29.
For the variant U9C A67G A90U A92G U103C A111G, the self-cleavage was determined as 0.01.
With U9C U19C U43C G79A A89G, the self-cleavage stood at 0.13.
As for U9C A13U A68G A89G A110G, the figure is 0.48; as for U9C A59G A95G A110G U124C, 0.28; as for U9A A86G U108C A117C C121A, 0.01.
Regarding U9C U39C U49G A51G, the self-cleavage is 1.34.
The value for U9C C10U A67G A68G C101U U130C A135G was 0.76.
Regarding U9C U12C U43G A52G A67G A78U, the self-cleavage is 1.05.
On to U9C A63G A111G U127A, for which the self-cleavage was found to be 0.04.
The value for U9C C113U A116G was 0.06; that for U9C U19G G21A A116G G136A was 1.78; that for U9C U37C A52G A111G was 0.02.
Regarding U9C G44A G73U, the self-cleavage is 0.21.
With U9C A22G U38C, the self-cleavage was 0.39.
For the variant U9C G83A A94G, the self-cleavage stood at 2.06.
As for U9C A60G C77A A96G U122C, the figure is 0.76; as for U9C A69G A94G, 0.91; as for U9C A18G A30G U132C, 1.18.
As for C10U A11U A67G, the figure is 0.59; as for A11C A22G A23G U108C A118C, 0.01.
Take U9C U19C A23G A68G: the self-cleavage was 0.77.
With U9C U12A C42G A59G, the self-cleavage was found to be 1.39.
Regarding C10U A52G A56G A116G, the self-cleavage worked out at 0.
On to C10U A30G G31U A95U, for which the self-cleavage came out at 1.18.
The value for C10U U108C A111G was 0.01.
For U9A A64G U70A A117G, the self-cleavage came out at 0.79.
The value for U9C U38C A63G U108C A140C was 0.02.
The value for U9C A24G U108C was 0.06; that for U9A A94G A140U was 1.
U9C U122A A125G A129G: the self-cleavage came out at 0.19.
With U9C A51G A117G U130C, the self-cleavage came to 1.64.
As for U9C A90G A116G, the figure is 0.58.
Take U9C A78G A86G A117G: the self-cleavage was 0.33.
